Assay results taken from the supplement of paper PMC4967469.

How the values were obtained:
Assay in all cases: Viability of human cancer cell lines after 72 h of drug (GDSC screen)
[1] = compound: CC(C)(C)c1nc(-c2cccc(NS(=O)(=O)c3c(F)cccc3F)c2F)c(-c2ccnc(N)n2)s1 [Dabrafenib]; conditions: top dose 10 µM
Experimental: (§1)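 Human cancer cell lines in 384-well plates, medium with 10% serum, drug for 72 h over a 256-fold dose range (nine 2-fold or five 4-fold steps up to the top dose). Adherent lines were fixed and stained with the nucleic acid dye Syto60, suspension lines read with resazurin; signal relative to control wells, capped at 0 and 100%. One two-parameter sigmoid per drug and line, fitted in a mixed model over all curves with the slope shared within a line.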

[2] = compound: CCc1c2c(nc3ccc(O)cc13)-c1cc3c(c(=O)n1C2)COC(=O)[C@]3(O)CC [SN-38]; conditions: top dose 0.05 µM; top dose inferred
Experimental: as §1

[3] = compound: CN(Cc1cnc2nc(N)nc(N)c2n1)c1ccc(C(=O)N[C@@H](CCC(=O)O)C(=O)O)cc1 [Methotrexate]; conditions: top dose 0.2 µM
Experimental: as §1

[4] = compound: CNC(=O)c1ccccc1Sc1ccc2c(/C=C/c3ccccn3)n[nH]c2c1 [Axitinib]; conditions: top dose 2 µM
Experimental: as §1

[5] = compound: O=C(CCCCCCC(=O)Nc1ccccc1)NO [Vorinostat]; conditions: top dose 10 µM
Experimental: as §1

Row | Cell Line | AUC [1] | IC50 [1] [nM] | AUC [2] | IC50 [2] [nM] | AUC [3] | IC50 [3] [nM] | AUC [4] | IC50 [4] [nM] | AUC [5] | IC50 [5] [nM]
1 | A388 (skin, adherent) | 0.98 | > 10000 | 0.654 | 8.95 | 0.98 | > 200 | 0.878 | > 2000 | 0.735 | 3290
2 | HSC-2 (head and neck, adherent) | 0.988 | > 10000 | 0.332 | 1.11 | 0.838 | 121 | 0.975 | > 2000 | 0.699 | 2160
3 | NCI-H1869 (lung squamous cell carcinoma, adherent) | 0.981 | > 10000 | 0.903 | > 50 | 0.985 | > 200 | 0.983 | > 2000 | 0.86 | > 10000
4 | CL-40 (large intestine, adherent) | 0.858 | > 10000 | 0.759 | 30.4 | 0.966 | > 200 | 0.976 | > 2000 | 0.92 | > 10000
5 | YKG-1 (glioma, adherent) | 0.977 | > 10000 | 0.727 | 13.9 | 0.986 | > 200 | 0.959 | > 2000 | 0.73 | 2840
6 | CPC-N (small cell lung carcinoma, suspension) | 0.956 | > 10000 | 0.932 | > 50 | 0.58 | 21.2 | 0.939 | > 2000 | 0.541 | 816
7 | NTERA-2 cl.D1 (testis, adherent) | 0.96 | > 10000 | 0.203 | 0.417 | 0.954 | > 200 | 0.892 | > 2000 | 0.633 | 1450
8 | SK-MG-1 (glioma, adherent) | 0.965 | > 10000 | 0.606 | 6.14 | 0.987 | > 200 | 0.947 | > 2000 | 0.708 | 2430
9 | SU-DHL-16 (B-cell lymphoma, suspension) | 0.514 | 676 | 0.825 | 19.8 | 0.925 | 160 | 0.95 | > 2000 | 0.461 | 502
10 | NU-DUL-1 (B-cell lymphoma, suspension) | 0.992 | > 10000 | 0.593 | 5.33 | 0.992 | > 200 | 0.939 | > 2000 | 0.472 | 533
11 | LB2518-MEL (melanoma, adherent) | 0.97 | > 10000 | 0.909 | > 50 | 0.975 | > 200 | 0.987 | > 2000 | 0.761 | 3720
12 | NCI-H2087 (lung adenocarcinoma, semi-adherent) | 0.813 | 5910 | 0.553 | 4.4 | 0.983 | > 200 | 0.986 | > 2000 | 0.879 | > 10000
13 | MC-IXC (neuroblastoma, adherent) | 0.996 | > 10000 | 0.093 | 0.276 | 0.995 | > 200 | 0.988 | > 2000 | 0.642 | 1380
14 | MS-1 (small cell lung carcinoma, suspension) | 0.99 | > 10000 | 0.917 | > 50 | 0.607 | 23.8 | 0.977 | > 2000 | 0.555 | 867
15 | SK-MEL-3 (melanoma, adherent) | 0.251 | 105 | 0.881 | > 50 | 0.924 | > 200 | 0.983 | > 2000 | 0.777 | 4660
16 | COR-L95 (small cell lung carcinoma, adherent) | 0.984 | > 10000 | 0.94 | > 50 | 0.981 | > 200 | 0.985 | > 2000 | 0.885 | > 10000
17 | NCI-H720 (lung carcinoid, suspension) | 0.987 | > 10000 | 0.991 | > 50 | 0.984 | > 200 | 0.919 | > 2000 | 0.698 | 2130
18 | IST-SL2 (small cell lung carcinoma, suspension) | 0.967 | > 10000 | 0.834 | 32.2 | 0.942 | > 200 | 0.918 | > 2000 | 0.618 | 1310
19 | SW13 (adrenal gland, adherent) | 0.934 | > 10000 | 0.418 | 1.86 | 0.982 | > 200 | 0.968 | > 2000 | 0.754 | 3420
20 | NCI-H1623 (lung adenocarcinoma, adherent) | 0.983 | > 10000 | 0.446 | 2.16 | 0.982 | > 200 | 0.982 | > 2000 | 0.851 | > 10000
21 | TT2609-C02 (thyroid, adherent) | 0.956 | > 10000 | 0.803 | 26.7 | 0.866 | 199 | 0.859 | 1840 | 0.63 | 1460
22 | TE-12 (oesophagus, suspension) | 0.961 | > 10000 | 0.903 | > 50 | 0.856 | > 200 | 0.962 | > 2000 | 0.745 | 3740
23 | LAN-6 (neuroblastoma, adherent) | 0.982 | > 10000 | 0.896 | > 50 | 0.95 | > 200 | 0.959 | > 2000 | 0.83 | 7970
24 | G-361 (melanoma, adherent) | 0.12 | 40.4 | 0.841 | 32.8 | 0.915 | > 200 | 0.977 | > 2000 | 0.356 | 254
25 | EHEB (lymphoid neoplasm, suspension) | 0.812 | 8750 | 0.874 | > 50 | 0.909 | > 200 | 0.972 | > 2000 | 0.558 | 966
26 | NCI-H2227 (small cell lung carcinoma, semi-adherent) | 0.978 | > 10000 | 0.767 | 21 | 0.85 | 182 | 0.908 | > 2000 | 0.648 | 1700

Row | Cell Line | AUC [1] | IC50 [1] [nM] | AUC [2] | IC50 [2] [nM] | AUC [3] | IC50 [3] [nM] | AUC [4] | IC50 [4] [nM] | AUC [5] | IC50 [5] [nM]
27 | KARPAS-620 (haematopoietic neoplasm, suspension) | 0.913 | > 10000 | 0.957 | > 50 | 0.899 | 189 | 0.925 | > 2000 | 0.669 | 1710
28 | K2 (melanoma, adherent) | 0.159 | < 39.1 | 0.739 | 18.8 | 0.982 | > 200 | 0.868 | > 2000 | 0.744 | 3930
29 | OC-314 (ovary, adherent) | 0.892 | 8860 | 0.499 | 3.11 | 0.899 | 190 | 0.983 | > 2000 | 0.743 | 2730
30 | OCUB-M (breast, adherent) | 0.967 | > 10000 | 0.244 | 0.649 | 0.99 | > 200 | 0.981 | > 2000 | 0.828 | 5060
31 | HuO9 (osteosarcoma, adherent) | 0.956 | > 10000 | 0.531 | 3.83 | 0.935 | > 200 | 0.947 | > 2000 | 0.659 | 1820
32 | SUP-HD1 (Hodgkin lymphoma, suspension) | 0.982 | > 10000 | 0.372 | 1.41 | 0.839 | 127 | 0.943 | > 2000 | 0.54 | 799
33 | SKN-3 (head and neck, adherent) | 0.979 | > 10000 | 0.634 | 7.83 | 0.931 | > 200 | 0.946 | > 2000 | 0.509 | 666
34 | NCC010 (kidney, adherent) | 0.907 | > 10000 | 0.781 | 22.2 | 0.927 | > 200 | 0.956 | > 2000 | 0.822 | 6390
35 | NCI-H810 (large cell lung carcinoma, adherent) | 0.987 | > 10000 | 0.667 | 8.91 | 0.985 | > 200 | 0.961 | > 2000 | 0.741 | 2950
36 | EoL-1-cell (haematopoietic neoplasm, suspension) | 0.674 | 1790 | 0.529 | 3.71 | 0.395 | 6.67 | 0.023 | < 7.81 | 0.384 | 313
37 | KATOIII (stomach, semi-adherent) | 0.983 | > 10000 | 0.959 | > 50 | 0.969 | > 200 | 0.595 | 223 | 0.705 | 2230
38 | JVM-3 (lymphoid neoplasm, suspension) | 0.754 | 3410 | 0.384 | 1.49 | 0.553 | 17.4 | 0.822 | 1190 | 0.436 | 416
39 | NCC021 (kidney, adherent) | 0.938 | > 10000 | 0.733 | 16.3 | 0.985 | > 200 | 0.926 | > 2000 | 0.767 | 4320
40 | PANC-03-27 (pancreas, adherent) | 0.975 | > 10000 | 0.595 | 5.59 | 0.974 | > 200 | 0.988 | > 2000 | 0.826 | 5540
41 | NB(TU)1-10 (neuroblastoma, adherent) | 0.993 | > 10000 | 0.984 | > 50 | 0.985 | > 200 | 0.984 | > 2000 | 0.761 | 3100
42 | IST-MEL1 (melanoma, adherent) | 0.461 | 481 | 0.472 | 2.58 | 0.784 | 103 | 0.965 | > 2000 | 0.766 | 4390
43 | RCC-FG2 (kidney, adherent) | 0.766 | 4680 | 0.832 | 44.8 | 0.982 | > 200 | 0.922 | > 2000 | 0.812 | 7290
44 | IA-LM (large cell lung carcinoma, adherent) | 0.838 | 8020 | 0.812 | 31 | 0.983 | > 200 | 0.952 | > 2000 | 0.675 | 2060
45 | RL95-2 (endometrium, adherent) | 0.957 | > 10000 | 0.889 | > 50 | 0.941 | > 200 | 0.932 | > 2000 | 0.717 | 2560
46 | RVH-421 (melanoma, adherent) | 0.446 | 423 | 0.866 | > 50 | 0.979 | > 200 | 0.968 | > 2000 | 0.825 | 9260
47 | ESO26 (oesophagus, adherent) | 0.988 | > 10000 | 0.714 | 12 | 0.834 | 120 | 0.983 | > 2000 | 0.736 | 2810
48 | T-T (oesophagus, adherent) | 0.922 | > 10000 | 0.695 | 11 | 0.94 | > 200 | 0.939 | > 2000 | 0.617 | 1310
49 | LOU-NH91 (lung squamous cell carcinoma, adherent) | 0.744 | 3360 | 0.666 | 9.49 | 0.986 | > 200 | 0.956 | > 2000 | 0.776 | 4360
50 | EFO-21 (ovary, adherent) | 0.965 | > 10000 | 0.763 | 26.1 | 0.95 | > 200 | 0.98 | > 2000 | 0.935 | > 10000
51 | TGBC11TKB (stomach, adherent) | 0.974 | > 10000 | 0.879 | 40.9 | 0.959 | > 200 | 0.968 | > 2000 | 0.72 | 2400

A lower IC50 marks a more sensitive line; fits outside the tested doses are given as limits. AUC is the area under the same curve over the 256-fold range up to the top dose, as a fraction; it is 1 without any effect and falls as sensitivity rises. For part of these data: Any top dose called inferred is not printed in the source and was worked back from the curve model.
